The values below come from PubChem BioAssay AID1508623 (National Center for Advancing Translational Sciences (NCATS), 2021).

Among all 48,000 compounds or so, about 450 (0.94%) were called active. Roughly 19% stayed inconclusive and do not appear here. Calls follow the shape of the dose curve; as a rule, active = well fitted inhibition curve with a large enough effect; inconclusive = small, poorly fitted or top-dose-only effect; inactive = no such curve, though single readings can be large or run the other way. Some of the results follow.

A short description of the test: Primary qHTS for Identification of Small Molecule Inhibitors of Huntingtin Promoter Activity. Also: nearly all actives have a fitted effect of over 50% in size. As to conditions: HEK293 HTT promoter firefly luciferase reporter (activity 0% = vehicle and -100% = no light), 24 h; series mostly up to 57.5 µM; activity change, negative = inhibition: at the top concentration. In short, it runs like this: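 HEK293 luciferase promoter-reporter cells (2,500/well) plated 24 h, then compounds added at up to 57.5 uM final for 24 h at 37 °C. Firefly luminescence by Dual-Glo, normalized to vehicle (0%) and zero RLU (-100%).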
In general terms: In qHTS, concentration-response curves come from the screen itself.
For `O=C(Nc1ccccc1C(=O)O)c1cccc(S(=O)(=O)N2CCCC2)c1`, the “activity change, negative = inhibition” value was inactive: 54.5%.

On to `CCCCN(CC)CCCNC(=O)c1cn(C)c2ccc(S(=O)(=O)N(C)C3CCCCC3)cc2c1=O`, for which the activity change, negative = inhibition is inactive: -43% [at 11.5 µM]. The figure for `CCOc1cc(C(=O)NCc2ccc3c(c2)CCN3C(=O)CC)cc(OCC)c1OCC` is inactive: -4.68%; for `COc1cccc(CNC(=O)CCC(=O)N2CC3CCCN3c3ccccc32)c1` (configuration not stated) it is inactive: -12.8%; for `Cc1ccccc1NC(=O)CN(C)S(=O)(=O)c1cccc2nsnc12` it is inactive: 3.24%.

With `CCC(Cn1nnc2ccccc2c1=O)NC(=O)Nc1cccc(Cl)c1` (configuration not stated), the “activity change, negative = inhibition” value is inactive: -14.3%.

For `COc1ccc(-c2[nH]ncc2C(=O)NCc2ccc(F)cc2)cc1`, the “activity change, negative = inhibition” value was inactive: -20.6%.

Turning to `CCc1cccc(NC(=O)Cn2c(=O)n(CC3CCC(C(=O)NCCc4ccccc4)CC3)c(=O)c3ccccc32)c1` (configuration not stated), the “activity change, negative = inhibition” value is inactive: -9.42%. As for `COc1ccccc1CCNC(=O)Cc1c(C)c2c(cc(C)c3c(C)coc32)oc1=O`, the figure is inactive: -8.68%. Consider `O=C(NC1CC(=O)N(c2cccc(F)c2)C1)C1CCCCC1` (configuration not stated), for which the “activity change, negative = inhibition” value is inactive: -7.44%.

For the molecule `CN(C(=O)Nc1cn(C)c(=O)c2ccccc12)c1ccccc1`, the “activity change, negative = inhibition” value was inactive: -15.7%.

As for `COc1ccc(Cl)cc1NC(=O)CN1c2ccccc2S(=O)(=O)c2ccccc21`, the “activity change, negative = inhibition” value was inactive: -14%.

Regarding `O=C(CSC1=Nc2ccccc2N=C(c2ccc(F)cc2)C1)Nc1cc(F)ccc1F`, the “activity change, negative = inhibition” value is inactive: -0.5%. For `COCCCNC(=O)c1c(NC(=O)c2cc(=O)c3cc(C)c(C)cc3o2)sc2c1CCCC2`, the “activity change, negative = inhibition” value was inactive: -0.212%. As for `COc1ccccc1CCNC(=O)c1cc2ccccn2n1`, the figure is inactive: 31.9%; as for `CCCN1C(=O)CN(C2CCCCCC2)C(=O)C1c1ccc(OCC)c(OC)c1` (configuration not stated), inactive: -5.51%; as for `CCCCNc1cc(NC2CCCCC2)c2c3c(onc13)-c1ccccc1C2=O`, inactive: -31.4%.

On to `Cc1ccc(SCC(=O)Nc2cccc(-c3nc4cc(Cl)ccc4o3)c2C)cc1`, for which the “activity change, negative = inhibition” value is inactive: 0%. The figure for `CCCOc1ccc(CNC(=O)C2CCN(c3nc4ccccc4nc3C(F)(F)F)CC2)cc1` is inactive: 0.565%; for `N#CC[C@H](C1CCCC1)n1cc(-c2ncnc3[nH]ccc23)cn1` it is inactive: 5.82%; for `CC1=C(C(=O)Nc2ccccc2Cl)C(c2cccs2)n2ncnc2N1` (configuration not stated) it is inactive: -11.7%. The figure for `O=C(CCC1N=C2c3ccccc3N=C(SCc3cccc(F)c3)N2C1=O)NC1CCCCC1` (configuration not stated) is inactive: -9.23%; for `Cc1cc(NS(=O)(=O)c2ccc(NC(=O)COc3c(C)cc(Br)cc3C)cc2)no1` it is inactive: -10.7%; for `Cc1c(CNC(C)c2ccccc2)c(C(=O)O)c(C)n1Cc1c(F)cccc1Cl` (configuration not stated) it is inactive: -17.4%. The figure for `CCOC(=O)N1CCN([N+]([O-])=NOc2cc(ON=[N+]([O-])N3CCN(C(=O)OCC)CC3)c([N+](=O)[O-])cc2[N+](=O)[O-])CC1` is inactive: -0.902%; for `COc1cc(-c2noc(-c3nnn(-c4ccc(Cl)cc4)c3C)n2)cc(OC)c1OC` it is inactive: -6.51%. In the case of `Cc1ccc(-n2nc(CO)c(C(=O)NCCc3ccccc3)n2)cc1C`, the “activity change, negative = inhibition” value is inactive: -11.2%. Take `CCCc1nn(C)c2c(=O)[nH]c(-c3cc(S(=O)(=O)N4CCN(C)CC4)ccc3OCC)nc12`: the activity change, negative = inhibition result is “inactive”. As for `CCc1cccc(C)c1Nc1c(-c2ccc(N3CCOCC3)cc2)nc2ncccn12`, the figure is inactive: -17.6%; as for `CC(=O)c1ccc(NC(=O)C2CCCN(S(=O)(=O)c3cn(C)cn3)C2)cc1` (configuration not stated), inactive: -15.6%; as for `CCOC(=O)c1cc2c(=O)n3ccccc3nc2n(Cc2ccco2)c1=NC(=O)c1ccccc1OC`, inactive: -7.17%. As for `Cc1ccc(NC(=O)C2CCCN(c3nnc(C)c4c(C)n(-c5ccccc5)nc34)C2)cc1Cl` (configuration not stated), the figure is inactive: -19.2%; as for `Cc1c2cnn(CC(=O)Nc3ccc(F)cc3F)c(=O)c2c(C)n1Cc1cccc(Cl)c1`, inactive: -13.6%; as for `Cc1cc(C)cc(OCC(=O)Nc2cccc(-c3nc4ccccc4[nH]3)c2)c1`, inactive: 6.88%.

`O=C(Cn1c(=O)n(-c2ccc(F)cc2)c(=O)c2sccc21)Nc1cccc(C(F)(F)F)c1`: the “activity change, negative = inhibition” value is inactive: -22.3%.

In the case of `COc1ccc(-n2nc3c(c2NC(=O)C(=O)N2CCN(C)CC2)CSC3)cc1`, the “activity change, negative = inhibition” value is inactive: -7.89%.

Regarding `Cc1ccc(-n2nc3c(=O)n(C(C)C(=O)O)nc(C)c3c2C)cc1` (configuration not stated), the “activity change, negative = inhibition” value is inactive: -14%. The figure for `CCC(=O)N1CCc2cc(S(=O)(=O)CCC(=O)NCc3ccc(F)cc3)ccc21` is inactive: -15%; for `CC(C)NC(=O)c1cc2c(Cl)nc3ccccc3c2s1` it is inactive: -6.23%. `Cc1cc(O)c(C(=O)c2cnc3c(c2)COc2ccccc2-3)cc1Cl`: the “activity change, negative = inhibition” value was inactive: -18.4%. The figure for `CCOc1ccc(NC(=O)Cn2cc(C(=O)c3ccc(C)c(C)c3)c(=O)c3cc(F)ccc32)cc1` is inactive: -5.69%; for `Cc1ccc(Cl)cc1NC(=O)Cn1c(=O)n(CCC(=O)N2CCc3ccccc3C2)c(=O)c2ccccc21` it is inactive: -2.61%. In the case of `CCOc1ccc2nc(N3CCCC(C(=O)NCCc4ccc(SC)cc4)C3)sc2c1` (configuration not stated), the “activity change, negative = inhibition” value is inactive: 54.9%. Regarding `CCN(c1ccc(C)cc1C)S(=O)(=O)c1nnc(NC(=O)CC(C)C)s1`, the “activity change, negative = inhibition” value was inactive: 6.08%.

With `COc1cccc(C(=O)c2sc(Nc3ccc(F)c(Cl)c3)nc2N)c1`, the activity change, negative = inhibition was inactive: -20.6% [at 11.5 µM]. For `Cn1c(=O)c2sccc2n2c(CCC(=O)Nc3ccc(F)cc3)nnc12`, the “activity change, negative = inhibition” value is inactive: 7.19%.

`C[C@@H]1CN(c2c(F)c(F)c3c(=O)c(C(=O)O)cn(C4CC4)c3c2F)C[C@H](C)N1`: the “activity change, negative = inhibition” value was inactive: -2.47% [at 25.2 µM].
